Laboratory results from publication PMC4336329 (PLoS ONE, 2015).
Among all 310,000 compounds or so, about 14,000 (4.5%) showed an effect of 50% or more. Effects have a minus sign here. This is one part of the list.

biological target: human ether-à-go-go-related gene (hERG) potassium channel (human, UniProt Q12809); assay: primary screen, population patch clamp on CHO cells stably expressing hERG
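Also: peak tail current of the secondary pulse compared with the same well before compound.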

Sequence of human ether-à-go-go-related gene (hERG) potassium channel (Q12809 whole entry, looked up): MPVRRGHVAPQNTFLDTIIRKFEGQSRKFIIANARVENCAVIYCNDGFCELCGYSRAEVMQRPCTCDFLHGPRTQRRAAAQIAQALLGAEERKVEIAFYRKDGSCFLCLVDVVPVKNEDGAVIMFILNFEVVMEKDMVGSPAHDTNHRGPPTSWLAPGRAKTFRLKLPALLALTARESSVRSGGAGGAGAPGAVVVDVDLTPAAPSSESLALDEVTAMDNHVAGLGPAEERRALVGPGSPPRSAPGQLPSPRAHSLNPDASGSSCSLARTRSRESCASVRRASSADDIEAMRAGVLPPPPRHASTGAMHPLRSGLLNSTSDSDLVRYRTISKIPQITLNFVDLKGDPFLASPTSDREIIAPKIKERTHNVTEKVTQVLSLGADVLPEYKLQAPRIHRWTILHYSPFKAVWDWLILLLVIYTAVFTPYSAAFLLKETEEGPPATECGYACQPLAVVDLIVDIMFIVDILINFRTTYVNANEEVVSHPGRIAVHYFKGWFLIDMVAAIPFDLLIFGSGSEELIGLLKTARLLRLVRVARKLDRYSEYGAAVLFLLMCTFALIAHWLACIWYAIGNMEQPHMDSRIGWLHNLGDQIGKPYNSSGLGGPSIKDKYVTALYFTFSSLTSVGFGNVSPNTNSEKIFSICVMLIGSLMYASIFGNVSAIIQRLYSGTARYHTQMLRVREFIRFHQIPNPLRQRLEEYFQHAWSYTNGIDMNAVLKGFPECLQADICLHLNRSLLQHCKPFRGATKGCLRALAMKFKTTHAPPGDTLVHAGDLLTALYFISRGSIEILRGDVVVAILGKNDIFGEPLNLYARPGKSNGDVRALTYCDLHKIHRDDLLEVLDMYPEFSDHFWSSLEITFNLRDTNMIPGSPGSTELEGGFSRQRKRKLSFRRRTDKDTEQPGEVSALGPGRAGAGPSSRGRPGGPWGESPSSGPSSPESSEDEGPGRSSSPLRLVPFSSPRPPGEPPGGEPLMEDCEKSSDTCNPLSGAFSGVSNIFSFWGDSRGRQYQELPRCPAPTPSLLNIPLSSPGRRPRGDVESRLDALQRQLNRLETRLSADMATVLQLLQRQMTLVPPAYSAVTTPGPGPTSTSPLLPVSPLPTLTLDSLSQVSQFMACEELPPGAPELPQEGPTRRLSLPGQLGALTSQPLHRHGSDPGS

SMILES | hERG current change (%, negative = inhibition) at 10uM [%]
Cc1cc(NC(=O)CCC(=O)N(CC(=O)NCC2CCCO2)c2ccc3c(c2)OCCO3)no1 (centres unmarked) | 12
CCOC(=O)[C@H]1[C@H]2COc3cc(OC)ccc3[C@@H]2N2C(=O)CN(Cc3ccc(C)cc3)C(=O)[C@@]12C | -19.8
CCOc1ccc(CCNC(=O)C2CCN(S(=O)(=O)N3CC(C)CC(C)C3)CC2)cc1OCC (centres unmarked) | 20.7
CN(CC1COc2ccccc2O1)c1nc(-c2cccnc2)nc2ccccc12 (centres unmarked) | -17.5
CC1CC(C)CN(C(=O)CCS(=O)(=O)c2ccc3c(c2)NC(=O)CS3)C1 (centres unmarked) | 5.23
CCCC[C@@H]1CNC(=O)C(=O)N1CCc1cccc2ccccc12 | -1.09
CC(C)c1ccc(-n2c(O)c(/C=N/NC(=O)c3ccncc3)c(=O)[nH]c2=O)cc1 | 12.6
Cc1ccc(Sc2ccc(NC(=O)CCl)cc2)cc1C | 5.84
Cc1ccccc1C1C(=O)c2ccccc2C1=O | 20.1
Cc1ccc(C(=O)NCCNC(=O)c2cnccn2)cc1 | 7.28
Cc1cnn(C(=O)c2cc(-c3ccccn3)nc3ccc(Cl)cc23)c1 | 8.52
CC(C)(C)c1ccc(S(=O)(=O)NCC2CCCO2)cc1 (centres unmarked) | 1.6
C=CCn1c(Cc2nc3ccc(Cl)cc3[nH]2)n[nH]c1=S | 22.9
Cc1ccc(NC(=O)COC(=O)c2ccc(Cl)nc2)cc1S(=O)(=O)N1CCCCC1 | 15.2
O=C(CN(C1CCCCC1)S(=O)(=O)c1ccccc1)NCc1cccnc1 | -30
COc1ccc(Cl)cc1NC(=O)CSc1nnc(-c2ccncc2)n1CC1CCCO1 (centres unmarked) | -28.2
Cc1ccc2c(c1)C(c1ccccc1)N(C(=O)c1cc3ccccc3oc1=O)CC(=O)N2 (centres unmarked) | -65.1
CC(=O)N1CCCSC1=Nc1ccccc1 | 12.8
CC(NC(=O)COC(=O)CCc1nc2ccccc2c(=O)[nH]1)c1ccccc1 (centres unmarked) | -19
Cc1ccc(-c2cnn3c(N4CCOCC4)cc(C)nc23)cc1 | 0.229
CCCCC(=O)OCC(=O)Nc1ccc(SC(F)F)cc1 | 4.23
COC(=O)c1sc2ccccc2c1-n1cccc1C(=O)C(=O)Nc1ccc(F)cc1 | -5.86
COc1ccc(Nc2nc(Cl)nc(NCc3ccco3)n2)cc1 | 9.37

SMILES | hERG current change (%, negative = inhibition) at 10uM [%]
Cl.NCCn1c(-c2ccccc2)cc(C(=O)O)c1-c1ccccc1F | 1.09
CCOc1ccc2ncc(S(=O)(=O)c3ccc(C)cc3)c(N3CCC4(CC3)OCCO4)c2c1 | -19.4
CCOc1ccc(C(=O)Nc2ccc(-c3nc4ccccc4[nH]3)cc2)cc1[N+](=O)[O-] | 5.46
COC(=O)c1cc2occc2n1Cc1nc(-c2ccccc2C)oc1C | 11.6
COC(=O)c1ccc(NC(=S)NC2c3ccccc3CC2O)cc1 (centres unmarked) | 14.9
O=C(NCN1CCc2ccccc2C1)c1cnccn1 | -5.36
CC1(C)CC(=O)C(C=NCCN2CCN(CC(=O)Nc3ccc(F)cc3)CC2)=C(O)C1 | -4.49
O=C1CC(c2ccc(F)cc2)CC(O)=C1C=NCCN1CCN(C(=O)Nc2ccccc2)CC1 (centres unmarked) | -67.8
O=C(Cn1nnc2ccccc21)N/N=C\c1cccs1 | 1.19
c1ccc(CNc2nc3ccccc3n3cnnc23)nc1 | 0.696
CCOC(=O)c1c[nH]c2c(C)ccc(Cl)c2c1=O | 20.9
CC1CCN(S(=O)(=O)c2ccc(C(=O)Nc3nnc(-c4ccccn4)o3)cc2)CC1 | 14.8
CN1C(=O)c2ccc(NC(=O)c3c(F)c(F)c(F)c(F)c3F)cc2C1=O | 18.3
COCCN1C=C2C(=O)C(C)(OC(=O)C3CCCC3)C(=O)C=C2C=C1c1ccsc1 (centres unmarked) | -6.22
CCOC(=O)c1[nH]c(C)c(C)c1C | 16
O=C1CN(C(=O)COc2ccc(Br)cc2F)c2ccccc2N1 | -15.1
CCN(CC)c1ccc(N=Cc2c(O)n(Cc3ccccc3)c(=O)[nH]c2=O)cc1 [14738079] | 18.5
Cc1ccccc1C(=O)NC1CCN(C(=O)NC2CCCCC2)CC1 | 7.15
COc1ccc(CC(=O)NC(C)CCc2ccccc2)cc1OC (centres unmarked) | 8.96
COc1ccc(CN2CCN(C(=O)c3ccco3)CC2)c(OC)c1OC | 9.29
CCOC(=O)CN1C(=O)N[C@@H](c2cccs2)C(C(C)=O)=C1C | -1.5
CCN1CCN(C(=O)c2ccc3c(c2)S(=O)(=O)c2ccccc2C3=O)CC1.Cl | -1.55
COc1cccc(-c2nc(CS(=O)(=O)CC(=O)NCCCOC(C)C)c(C)o2)c1 | -1.26

SMILES | hERG current change (%, negative = inhibition) at 10uM [%]
Cc1nnc(SCC(=O)Nc2ccccc2)n1CCc1ccccc1 | -33
CSc1ccc(CNc2nc3ccccc3n3cnnc23)cc1 | 4.84
Cc1occc1C(=O)NNC(=O)c1ccc(F)cc1 | -3.25
COC(=O)c1ccc(-c2nc3cc(N)ccc3o2)cc1 | 12.7
Cc1nc(NC(=O)c2cc3c(s2)CCCCC3)sc1C(=O)N(C)C | -21.8
Cc1nn(Cc2ccccc2Cl)c(C)c1NC(=O)CSc1n[nH]c(C)c1[N+](=O)[O-] | 14.8
Cc1ccc(S(=O)(=O)c2nc(S(C)(=O)=O)sc2N2CCCCCC2)cc1 | -14.8
CC1(C)CC(NC(=O)C2CCCCC2C(=O)O)CC(C)(C)N1 (centres unmarked) | 17.6
CCn1c(C(=O)N2CCc3ccccc3C2)cc2sccc21 | -3.24
O=S(=O)(c1cccc(-c2nnc(-c3cccnc3)o2)c1)N1CCCCC1 | -25
COc1ccccc1NC(=O)CSc1nnc(Cc2cccs2)n1C | 5.99
CCSc1nc(C2CC2)cc(-c2cccs2)c1C#N | -15.4
CC(C)(Cc1ccc(O)cc1)NC(=O)CC(=O)N=Nc1c(O)[nH]c2cc(Br)ccc12 | 22.2
CCOC(=O)c1cnc(SCC(=O)Nc2cc(OC)ccc2OC)nc1N | -4.84
O=C(NCc1ccc2c(c1)OCO2)C1CCCN(S(=O)(=O)c2cccs2)C1 (centres unmarked) | 1.56
CN(Cc1ccc(F)cc1)C(=O)c1cccc(NS(=O)(=O)c2ccccc2)c1 | -13.4
CSc1nsc(/C=C/Nc2ccc(C)c(C)c2)c1C#N | 15.9
COc1cccc(C(=O)NNC(=O)c2ccccc2Br)c1 | 5.35
C=CCc1c(C)nc2c(OC)cccc2c1Cl | -5.59
O=C(NCC1CCCO1)C1CCN(S(=O)(=O)c2cccc3nonc23)CC1 (centres unmarked) | 2.29
CS(=O)(=O)Nc1ccc(S(=O)(=O)N2CCCC2)cc1 | 8.49
Cc1ccccc1CC(=O)NCCN1CCCCC1 | 11.8
c1ccc(-n2c(-c3ccco3)nnc2-c2ccco2)cc1 | 1.77

SMILES | hERG current change (%, negative = inhibition) at 10uM [%]
CN(C)c1ccc(C(=O)OCC(=O)NCCC2=CCCCC2)cc1 | -7.5
CCCCN(CC)Cc1ccc(CNC(=S)Nc2ccccc2F)o1 | -16.3
CCN(CC)S(=O)(=O)c1ccc(C(=O)NCc2ccc3c(c2)cc(C)n3C)cc1 | 11.1
COc1cccc(-c2cc(N)nn2C(=O)Nc2ccc(Cl)cc2)c1 | 2.17
O=c1c(-c2ccc(Cl)cc2)[n+]([O-])c2ccccc2n1O | 13.6
Cc1ccc(Cl)cc1N1CCN(S(=O)(=O)c2c(C)[nH]c(=O)[nH]c2=O)CC1 | 8.11
CC(=O)NC(=S)Nc1ccc(NC(=S)NC(=O)c2ccc([N+](=O)[O-])cc2)cc1 | 16.2
O=C(Nc1ncccn1)c1cc([N+](=O)[O-])cc([N+](=O)[O-])c1 | -1.33
CCOc1ccccc1NC(=S)NCCc1ccc(F)cc1 | -9.24
COc1ccc(NS(=O)(=O)c2ccc3c(c2)oc(=O)n3C)c(OC)c1 | 9.04
CCOc1c(Br)cc(C(=O)N2CCCN(C)CC2)cc1OC.Cl | 19
CC(=O)N1c2ccc(S(=O)(=O)N3CCC(C(=O)NC(C)c4ccccc4)CC3)cc2CC1C (centres unmarked) | -4.97
COc1ccc(-c2n[nH]c3c2CN(C(=O)c2ccccc2)CC3)cc1 | -6.13
CC1CC(NC(=O)N(C)C)N(C)C(=O)N1 (centres unmarked) | 3.3
CC1Cc2ccccc2N1c1ncnc2c1nnn2Cc1ccccc1 (centres unmarked) | -0.652
CCCCN(C)CCNS(=O)(=O)c1ccc2c(c1)n(C)c(=O)c(=O)n2C | 2.36
O=C(CCc1nc2ccccc2c(=O)[nH]1)Nc1cc(Cl)ccc1N1CCCCC1 | 4.58
Cn1[nH]c(=O)c2ccccc2c1=O | 4.37
Cc1cc(C)n(C2CC(=O)N(c3ccccc3)C2=O)n1 (centres unmarked) | -1.31
Cc1cc(C)c(OCC(=O)Nc2ccccc2N2CCCCC2)c(C)c1 | 4.55
